# This is one part of the list.
# System: PF3D7_0420300 AP2 domain 1 (GST-tagged)
# Assay: gcPBM binding intensity (ln(normalized median fluorescence intensity)); higher = stronger DNA binding
# Outline: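 For binding intensity, the highest Masliner-normalised natural-log median intensity across replicate spots of either probe orientation was taken. Protein bound to the array was stained with Alexa488 anti-GST antibody and scanned at 488 nm. The protein, GST-tagged P. falciparum DNA-binding domains from E. coli at about 25 μg on average, had been applied for 1 h to an Agilent 4 × 180k array of primer-extended double-stranded 36-bp intergenic genomic probes and negative controls.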
row,Sequence,gcPBM binding intensity (ln)
1,TTGACCTTAAGAAGGTTGCACTAATCATTCAAAGTT,8.96
2,CCATTTATTATTTGGGGTACATTTAATTAATATTTT [XGTACX_site5940],9.45
3,ATTAGTAAGAATCATTGTACATTATAATATGTGGTA [XGTACX_site1341],9.27
4,TTTTTAAAAAAGTAAAGTACAAAAAAAAGGAATATC [XGTACX_site588],9.52
5,TGCTTCCTTAGGAATGTACACACATATATAATATGT [CACACA_site8048],9.41
6,AAAGAAATACAATGATGTACATTTAAAAAAAATTAA [XGTACX_site4324],9.21
7,ACAAGAAAATATATTTGTACATATATAATTTTATTT [XGTACX_site548],9.2
8,TGTAAAACTGAAAAGGGTACATATAAATATATATAT [XGTACX_site69],9.28
9,ATTTATTTTTATATAACACACAAAGTATAATATAAC [CACACA_site3582],9.44
10,ATATATTTATATTTATGTACATATCTTTATTTACGT [XGTACX_site6800],9.42
11,ATATATATATCGATCTGTACATATATTTATAGACAT [XGTACX_site4236],9.25
12,ACGTTGAAGAAATACACATGCATATTCTATATATAT [TGCATGCA_site76],9.32
13,TATATTTTTTAAAAAGCATGCAAAAAATAATGATCA [TGCATGCA_site48],8.88
14,GTATAATATGAACACACACACACACGCAAAAAAAAA [CACACA_site7036],10.1
15,CTCTTATGCTAGGAAGTGCAATAGTATGGGTACCAC,9.07
16,TCATTTTATTTTTTCACACACACATATATATATATA [CACACA_site3333],9.96
17,TAATATATATAAACATGTACAAATCAAAAACAAAAG [XGTACX_site4076],9.7
18,TTAACTCAAGAGTGTACACATATATATATATATATA [CACACA_site4334],9.14
19,AATACCCATTTTAGTACACACTTAAAAAATTATTTT [CACACA_site5611],9.3
20,ATTCTTTTTTTTTGGAAATGTATTTTTATGTTTTGT [TGCATGCA_negctrl_site426],9.45
21,ATTTTAGATGAAAAAGCACACAACATATATATATAT [CACACA_site2295],9.61
22,TAACTAAGGAATAATACACACAGAAATATAGATTTA [CACACA_site6293],9.72
23,TCTATTTTCTTATGAATGCACTAATTTATAAAACGT,9.04

row,Sequence,gcPBM binding intensity (ln)
1,CAACAAAAATTATTTACACACAAAAGGCAAGGAAAT [CACACA_site1971],10.1
2,TTTATAAACAAATGAACACACAAACATATATATATA [CACACA_site5713],9.67
3,CTATTATAATATTTTACACACCATGTAAGATATATA [CACACA_site7492],9.3
4,TTTATTTTATCATTTGCACACGCACCCAGACATAAA [CACACA_site4347],9.39
5,TTTTTTCATTAGAAAACATGCAAATGTTTTTCACTT [TGCATGCA_site127],8.98
6,CTTTTTTTAATATGCACACATATATTTTATATATTA [CACACA_site2077],9.44
7,TATTCATTTATAAGCTGTACACATTAATTTGAGCTA [XGTACX_site3616],9.08
8,ATTAGGATATATTAAAGTACTAATATAATACATTTT [XGTACX_site7386],9.15
9,ATATAGTATTAATTTGCATGTCATGTATTAGGTCGA [TGCATGCA_site540],9.25
10,TTTTATATTTTTTGTGGTACATTTAGAGAACCAAAA [XGTACX_site1695],8.74
11,TGTAAGTTGATATAATGTACATGTTTGATTTTTTTT [XGTACX_site7687],9.4
12,AAAAAGGGTATTATTACACACACGTAAATATTAATA [CACACA_site101],9.61
13,AGATTTATACAAATATGTACACACTAAATATATATT [XGTACX_site864],9.44
14,ATAATTATCATAGGATGTACATATTTATTTTGTATA [XGTACX_site7797],9.22
15,ATATGTTAAATTATTCGTACGTAAAAAAAAATGGAT [XGTACX_site3465],9.43
16,TAATTTCATCATATTTGTTCCTTCTCAAAATTTTTT [CACACA_negctrl_site217],9.21
17,GCATTATTTACCACAACACACAAATATTTACCAATC [CACACA_site2669],9.59
18,TTCCTAAGAATAATCAGTACACATAAAAAGAACATA [XGTACX_site7861],9.43
19,ACTATATATTTAATATGTACACATATTTCTGTCGAT [XGTACX_site6878],9.32
20,ATATATTTGATTTACACACTTACAATGTATATAAAT [CACACA_site2993],9.52
21,AAAGAAATAAGGTGCACACATATACAGATATATATA [CACACA_site4399],9.66
22,CTCTTTTTTTGCAAAAGTACAAATGGGGATATATTT [XGTACX_site5813],9.29
23,TTACATATTTTTTAACGTACATAAATATATATGTAT [XGTACX_site8406],9.17

row,Sequence,gcPBM binding intensity (ln)
1,TTAAATAAAAAAATAACACACATATAAATATATATG [CACACA_site3175],9.38
2,ACTCAAACCTTTAGAGTGCAAAAAAAAAAAAAAAAA [GTGCAC_site9952],8.51
3,TTGTAAAAATTAATACATATATATATATATATATAT [CACACA_negctrl_site6],8.99
4,TTGTTTCTTAAATTATTTATTTTATATTAAAAAAAA [XGTACX_negctrl_site224],8.73
5,AAGAAAATGAAAAAGTAAAAACATATATTAAATATA [TGCATGCA_negctrl_site123],9.27
6,TCGTAGTTACTATGGCAAGAAAATAAACGGTCTTGT [GTGCAC_negctrl_site684],9.31
7,ATTCGTAGTTTTATGAATTAATATAATAAAAATTAA [XGTACX_negctrl_site181],8.77
8,TAAAAAACAAAACAGGTGCTATATAATTTTCATTTT,9.35
9,ATAGAATAATATTGTAGTACTAAAAATATTCATTTT [XGTACX_site6447],9.17
10,TCTATATATAAATATAAATATATATATATAATGTTA [TGCATGCA_negctrl_site92],8.99
11,ATTATAAATTAAAATACACACATATATACATAATAT [CACACA_site7337],9.66
12,AAGTATATACATATATGTACACATTGTCAGATAGAA [XGTACX_site1236],9.2
13,TCTTTTTGTTCGTGTACACACATGAAATTTATAAAA [CACACA_site1619],9.33
14,ATATATATATATATATGTACATATTTTTAATTATAA [XGTACX_site7444],9.02
15,ATATTTTCTTTTTAAAGTACATATTTGATTACAATA [XGTACX_site8414],9
16,GAAAAAAAAGAAAAAACACACATATGATATATTTAT [CACACA_site1524],9.31
17,CATGTAATATTAAACACACACTCATATAACACAATA [CACACA_site65],9.75
18,ATATATATTTATATATATATATATATATATATGTAT [GTGCAC_negctrl_site220],8.96
19,AAAGAAAAAAAAAACACACACACACGCATTCAATAT [CACACA_site6169],10.1
20,TAGTTATTTATATACACACACATACAGACAAATAAA [CACACA_site7577],9.97
21,TCTTAGATTATTTATTGTACTTATGCTTAAAAAATT [XGTACX_site3639],9.13
22,GTCCAATAAGGAAGAGTGCAAAAATTAAATAATATA [GTGCAC_site9751],9.16
23,TCTATAAAGTTCCATACATGCGCCATCATTTATATT [TGCATGCA_site195],9.6

row,Sequence,gcPBM binding intensity (ln)
1,ATTATAATTATTTTGTTGCACTATTTTTGTAGGCCA [GTGCAC_site9734],9.25
2,GAATACACCACGCACACACACTTGAGAAAAAATAAA [CACACA_site7747],9.74
3,GTGTACATAGGTATAGCACACACAAATGTAGGTATT [CACACA_site9339],9.63
4,AAATAAAATTATAACTGTACGTTGTATGAAATAATG [XGTACX_site5462],9.31
5,TGTATATATATATAAAGTACATATAATATATATTTG [XGTACX_site5411],9.05
6,CTGTTTAAAATATAAACACACATTGTTTGCTTTAGA [CACACA_site1301],9.23
7,ATTTTTTTACTGCAACCATATTTTTCCCTTTTATTC [CACACA_negctrl_site1282],9.57
8,GTATACACATATATATGTACTTAATTATTTTATGTC [XGTACX_site6707],9.33
9,CAAAGGGAAATTAACACACACATATATATATATATA [CACACA_site2453],9.63
10,GTCATAAAAACATATACACACTTGAAATATAAAAAT [CACACA_site5315],9.59
11,AAACATGATTATTATAGTACAATTATAATTATTATA [XGTACX_site2590],9.05
12,TTTATAAAAATATACACACATACAAATATGCATATA [CACACA_site712],9.44
13,GAAAAAAGGAAATAAAGAAAAAAAAAAATGAAATAT [XGTACX_negctrl_site318],9.45
14,TTTATATGTATTAAGTGTACACATATAATCTATCTT [XGTACX_site4922],9.35
15,TAATAATATATATGAAGTACAATAACTTTTTGTTTT [XGTACX_site292],9.18
16,GTCAAATTTTTGTGCACACATATATAGTTATTATTA [CACACA_site2241],9.67
17,TTTCTTTTCTCAGAAATTATTCAAATGAAAAAAAAT [TGCATGCA_negctrl_site44],8.69
18,TTACATATGGTTAGTAGTACATATATAAATGTAAAT [XGTACX_site7206],9.28
19,AAAAAAAAAAAAAAAACACACACATACACCCAAAAA [CACACA_site7910],9.69
20,AAAAAATATTAATATAGTACTTTATATTTATAAGTA [XGTACX_site6895],9.09

# — the supplement of paper PMC11417369
